Whole data set: some 16,000 sequences, median “Z-score” near -0.37, cut for the highest 2% near 3.2. This is one part of the list.
test system: RBM10 RRM1-ZnF (GST-tagged construct); experiment: RNAcompete 7-mer binding Z-score; higher = stronger binding preference
Experimental: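 RNAcompete: 20 pmol GST-tagged RBM10 RNA-binding constructs were incubated with a designed RNA pool of about 241,000 sequences up to 41 nt (1.5 nmol) on glutathione beads for 30 min at 4 °C and washed. Bound RNAs were identified by microarray hybridisation. Each RNA 7-mer is scored by a one-sided Z-score of its enrichment, computed over probes that contain the 7-mer within longer pool sequences.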

Sequence	RNAcompete 7-mer binding Z-score
GCGGCCA	-0.126
UGUAGCA	-0.106
UCCCGUG	-0.246
UUACCGU	-0.772
UGAACAG	0.365
AUAGGAC	0.888
UAAUGUC	-0.35
UCAUCUC	-0.815
CAUACCU	-0.792
GCCUUCC	-0.639
GGCGGGG	3.96
UUCAUUG	-0.539
CCUAAGA	-0.48
UCGUCAG	-0.37
GAUCUCC	-0.86
GCGCCAU	-0.49
UCCGGUC	-0.617
UCACAUU	-0.691
CGAUGUA	-0.00571
CCUUUAU	-0.893
GCUAGGA	0.92
GUUCAAG	-0.116
CGAGAGC	-0.0869

Sequence	RNAcompete 7-mer binding Z-score
GCUCCCC	0.0105
UCCCGAU	-0.873
CCCUCCC	-0.21
UGUACCC	-0.617
GGCACUC	-0.168
GUAUCCU	-0.72
UUUGACG	-0.522
CGCAGAG	0.335
UAGCGAC	-0.149
UACCGGA	-0.0285
AGCCCCG	-0.454
CGUCAGG	0.378
UGCGUAG	0.192
UACGGGU	1.94
UUAGUCC	-0.591
AUCCCCC	-0.461
CUCUUAG	-0.617
UGAGAAG	1.04
GCAUUCA	-0.396
AAAGUUU	-0.415
GAAACUA	-0.373
GGCACAU	0.163
UACUAUG	-0.366

Sequence	RNAcompete 7-mer binding Z-score
ACAACUC	-0.798
AAAUGCU	-0.36
GCAAUUA	-0.659
GUGCACA	0.121
UCUGGUU	-0.155
GUCCGAA	-0.633
AUUGAGG	1.63
UACAUAG	-0.191
GGUCGGC	0.699
CAAAACA	-0.451
ACACACC	-0.503
AGACCCC	-0.88
GUAAAAU	0.0203
CUCUUUA	-0.837
UACGAUG	0.115
UGUGCGA	0.235
GCAUGAU	-0.0479
CUCGCGU	-0.522
ACGCAGG	0.69
GGACUUU	-0.139
AUGAGGG	3.84
UCCCCGA	-0.36
AGAGCAC	-0.623

Sequence	RNAcompete 7-mer binding Z-score
UUCGGUA	-0.282
AGCCAGC	-0.396
AUUAGGC	0.218
GGAGUCC	0.738
UAUCUGG	-0.337
CGGGUGU	2.14
GACCGAG	-0.21
GCAUACU	-0.694
UAAACUU	-0.633
CACUACC	-0.552
UAGUUGG	1.32
UAGGUGA	2.48
CCCAGAG	0.0983
AACUAAG	-0.301
CCAUUGA	-0.642
UGUGUAG	0.797
GGUGGAA	3.81
AUCCCAC	-0.509
CCGGCGG	0.261
CUAUCCC	-0.772
CCGGAGG	0.729
UCCACAG	-0.522
GUGUUGU	0.368

Sequence	RNAcompete 7-mer binding Z-score
GUAACGU	0.082
AUCAGCA	-0.272
UCGCCGC	-0.493
AGCAAGA	0.043
GAGAUCC	-0.321
AGAUUAA	-0.0934
GGGGGUG	4.02
AUCCAGC	-0.769
CGGUACC	-0.275
AGGUUAA	1.16
CAGUUGC	-0.373
UCUAAAC	-0.746
CAGCCUG	-0.513
GUCGCUG	-0.0512
GGAAGGA	4.79
AGAGAGG	1.27
AUCGUCC	-0.854
CCCUUAA	-0.75
UAUACUC	-0.769
AGAAGUU	-0.116
CUGUCCG	-0.607
CACCAAU	-0.639
GUGACCU	-0.509

Sequence	RNAcompete 7-mer binding Z-score
CGAUUCG	-0.565
GGGGAUG	4.52
CAAGCGU	-0.418
GUCGAGG	1.85
AUUGCUG	-0.246
UAGUGGC	0.501
GCCCUUU	-0.928
UUUGCGA	-0.642
GCAGCCG	-0.402
ACACCCC	-0.165
CUGUCGG	-0.305
UACGUCU	-0.746
AGGGUCG	1.41
UUAACUC	-0.821
AUGCGUG	0.436
AUUCUAG	-0.532
CCUUGCA	-0.873
ACUGCUU	-0.919
CUAAUCU	-0.896
GUGAAAG	1.6
AUCAUAC	-0.685
AGCCCGA	-0.483
GUCGCCA	-0.337

Sequence	RNAcompete 7-mer binding Z-score
UUUUAAC	-0.818
AUUGACU	-0.522
CCCCUCU	-0.49
AAUCCUA	-0.915
CCUAUGG	-0.448
ACGACCG	-0.633
GCAUUGG	0.641
CGUGAGU	0.0983
UCAUCAA	-0.555
UAUAACU	-0.555
CGUUCGA	-0.704
AUGCAUU	-0.594
CGCUAAC	-0.707
GUAACCC	-0.259
GUGGUCC	0.16
CUGCGCU	-0.633
UCCAGUA	-0.448
AAUCCGA	-0.629
CAGACAC	-0.285
GGCUCUG	-0.357
GCGCAGG	1.5
GAGUCUU	-0.422
CUGGCUG	0.0853

Sequence	RNAcompete 7-mer binding Z-score
AUAUCGU	-0.516
UCAAGAG	-0.00571
AAUAUUA	-0.513
ACUCGGA	-0.165
CUGUAGU	-0.516
UCACGCG	-0.288
CAGUCUG	-0.555
GGGUGAC	3.04
AACUGAG	-0.00571
CCAUCUA	-0.782
CGCCACG	-0.0804
GACGCCA	-0.607
UGAGAAU	0.264
CCAUGCA	-0.737
GUUAGCU	-0.373
UGAUACG	0.082
UAGGAGG	2.77
ACAUAAG	-0.217
GCGUUUG	0.131
CAAGUUC	-0.753
GACGGCA	0.241
GGACAGC	0.732
GCCGGAU	0.17

Source: the supplement of paper PMC5499739
